# The full ranking holds about 33,000 sequences; the median of “E-score (-0.5 to 0.5)” is about -0.012, and the highest 2% start at about 0.27. This is one part of the list.
# Target: T1, Vhr1 (UniProt P40522)
# T1 sequence: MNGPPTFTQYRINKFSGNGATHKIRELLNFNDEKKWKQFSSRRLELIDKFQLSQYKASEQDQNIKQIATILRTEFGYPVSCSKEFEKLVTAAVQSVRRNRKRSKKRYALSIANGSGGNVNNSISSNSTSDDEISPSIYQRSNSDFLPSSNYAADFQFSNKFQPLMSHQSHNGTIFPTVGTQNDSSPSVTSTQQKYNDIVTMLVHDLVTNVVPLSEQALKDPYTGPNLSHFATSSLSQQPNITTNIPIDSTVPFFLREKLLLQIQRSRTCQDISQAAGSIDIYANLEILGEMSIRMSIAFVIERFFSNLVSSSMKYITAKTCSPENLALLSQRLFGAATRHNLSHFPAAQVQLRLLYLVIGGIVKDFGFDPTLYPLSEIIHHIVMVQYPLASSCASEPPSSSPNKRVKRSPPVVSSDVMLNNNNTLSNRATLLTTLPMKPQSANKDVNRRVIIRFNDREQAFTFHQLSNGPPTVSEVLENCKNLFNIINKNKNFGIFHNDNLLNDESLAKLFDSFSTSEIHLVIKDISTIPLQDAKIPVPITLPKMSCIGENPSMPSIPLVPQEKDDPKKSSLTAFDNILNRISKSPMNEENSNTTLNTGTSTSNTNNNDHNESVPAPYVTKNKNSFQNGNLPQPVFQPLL
# Experiment: PBM E-score (8-mer binding enrichment) (E-score (-0.5 to 0.5)); higher = stronger / more preferred TF binding; most listed sequences are background and not binding sites
# Conditions: protein concentration: 200 nM; construct: GST-full length
# Method in brief: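 Using PURExpress in vitro transcription/translation, GST-tagged yeast transcription factors were made in full-length or DNA-binding-domain form. These were applied at about 100-200 nM to double-stranded universal all-10-mer Agilent arrays, and bound protein was detected with fluorescent anti-GST. Scans were normalised with masliner before the Universal PBM Analysis Suite assigned E-scores to ungapped eight-base words pooled with their reverse complements.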
row,Sequence,PBM E-score
1,AGAGGCAA,-0.133
2,GAGCAATC,-0.0368
3,GGAGGCCA,-0.159
4,ACCTTCTA,-0.168
5,GCCCCATA,-0.0566
6,ACACGTAC,-0.0503
7,CAACGGTC,-0.0951
8,AGAGGCGA,-0.332
9,CACCTACC,-0.125
10,CAGAAAAA,-0.174
11,CGGGTTTA,0.127
12,AGCGGGGA,-0.0182
13,ACACCGCT,0.0169
14,CATTCTAG,-0.089
15,ATCTCGAG,0.0581
16,GGGCTAAA,-0.221
17,GCTAGGAA,-0.0746
18,CCTACGCG,-0.0405
19,AGTGCTCG,0.0359
20,CCAACAGA,-0.0653
21,ATTAAGGG,-0.151
22,GACACCGC,0.0715
23,CCGCAGAC,-0.024
24,CGTTTTTC,-0.141
25,ATAAGTAC,-0.0774

row,Sequence,PBM E-score
1,ACAGAGGC,-0.214
2,CCAAGGCG,-0.0453
3,AATTAGGA,-0.0499
4,AATTTTTA,-0.119
5,AACACCCG,0.151
6,ACACCGCA,0.232
7,CCCGCAAG,-0.139
8,TGAGTGCA,0.111
9,AAGAAGGA,-0.126
10,GAGTCAAC,0.403
11,AAGGATAT,0.0955
12,GCAATTGA,-0.0856
13,TCATCCAA,0.138
14,AATGAACT,-0.123
15,CTGTTAGC,-0.131
16,GCGGGAGA,-0.0498
17,CGTGTTTA,-0.0707
18,CGCGGACA,-0.0134
19,CGCTTTAC,-0.148
20,AACGGGGA,0.0181
21,GCCAAGGA,-0.151
22,GCCTGCGA,-0.00738
23,CAATCACC,0.238
24,AAGATGAC,0.0814
25,AGATTGAG,0.0189

row,Sequence,PBM E-score
1,GGAAGTGA,0.0662
2,CGCGCGCC,0.228
3,CAAAACGC,0.0176
4,ACTAAATC,0.139
5,CAGTATAG,0.104
6,AAAGATGA,-0.086
7,CACACGGC,-0.00572
8,GATCGCCA,0.0308
9,TGTCGGAA,0.0453
10,GACCGGAA,-0.086
11,CATCCATG,0.186
12,GGGAAACA,-0.0283
13,CCGAACGA,0.12
14,AGCCCGCG,0.153
15,ATTTTTTA,-0.229
16,AATGTATG,0.0796
17,CCAGCCCA,0.111
18,CCTGAGGC,-0.096
19,CAAACGAC,0.194
20,AAAGCGTG,0.11
21,AGGGCGAA,-0.127
22,CTTCGACA,-0.0949
23,AGAACGAT,-0.0492
24,ACTAGTAG,0.00335
25,ATGCGCAC,-0.0465

row,Sequence,PBM E-score
1,CACTCTTA,-0.0396
2,GACACCTC,0.0308
3,GCGTGTCA,0.107
4,GCCCGGGC,0.0736
5,ACTCCAGA,0.0505
6,CTTGAAAC,0.0278
7,ACCCGTCT,-0.0562
8,ACGGAGAG,-0.102
9,TCCTCACA,0.00996
10,TACTAAAA,-0.135
11,GAGAGTGA,0.0843
12,AAATGTCA,-0.0774
13,CGGAATAC,-0.00767
14,ACACTCTA,0.067
15,AGGTCTCA,0.112
16,ATCGTACA,-0.00558
17,CATCCTAG,0.00502
18,AGGAAGAG,-0.15
19,CGGTTGAG,0.22
20,GAGTCGCC,0.424
21,ACTATTCC,0.134
22,ATGTGCGG,0.203
23,GGTACTGA,0.144
24,CGATTTAG,-0.0352
25,GGCACTAC,-0.159

row,Sequence,PBM E-score
1,AAGTCGGT,-0.166
2,GCGCTAAA,-0.142
3,GTTCGTTA,0.0241
4,AGAACACG,-0.0678
5,AACGCGTA,-0.154
6,GGCCGAGA,-0.0709
7,TGCTGGAA,-0.154
8,ACCTTGCC,-0.00894
9,ACGCCAAC,-0.17
10,GGCGTTGA,-0.163
11,CAACACAG,0.139
12,GTTACTGA,0.00258
13,CATGCAGA,0.0528
14,AATCGTAT,0.169
15,CTAGGCTA,-0.136
16,AGCGGCAC,-0.043
17,AGGTGTAG,-0.0292
18,CGCGTTTC,-0.087
19,AGCGGTGC,-0.0768
20,GATATTAC,0.18
21,GTCTGGGA,-0.123
22,AAATAGAA,-0.154
23,CCCTTGGC,-0.237
24,AAATATTC,-0.0235
25,GGGTAACC,0.0583

row,Sequence,PBM E-score
1,CGAGTAAA,-0.0983
2,CCAGAGTC,0.222
3,GTAACGCA,-0.0119
4,ACACGGGT,0.161
5,ATTCAGTA,0.0937
6,ATGTCTTA,-0.00805
7,CCAGCTAA,-0.0677
8,CGAACGGA,0.213
9,CACATGAC,0.272
10,AATAATGT,0.0585
11,AAAAGCTG,-0.171
12,ACAAACAT,0.13
13,TCCCAAGA,-0.088
14,GTAATGCA,-0.162
15,GACCGGCA,0.0411
16,GTGATGAA,-0.0246
17,ACCTACAC,-0.0148
18,GACATGGC,-0.0383
19,CATACCCG,0.177
20,GGAATCAA,0.154
21,ACACGCCC,0.133
22,CCAAGTGC,-0.217
23,GACCCGGA,-0.0423
24,ATAGTGAA,-0.0787
25,CCCGAGCA,0.0308

row,Sequence,PBM E-score
1,CGGACAAC,0.16
2,GAGTACAA,0.166
3,GCAAGTGA,-0.129
4,TAGGACAA,-0.201
5,AGGTTACA,-0.0607
6,GCTGTTCA,-0.0249
7,ACAGAATA,0.0685
8,GAATACAC,0.127
9,CATGGGCA,0.177
10,GTGCAGCA,0.0483
11,AATTCACG,-0.0883
12,CCCGTGGC,-0.00381
13,GCCACCTA,-0.0979
14,AATCCAAA,-0.136
15,ACATTACC,-0.105
16,ACGTAGCC,-0.295
17,ATTTAAGA,-0.236
18,GGGCTTAC,-0.00595
19,AAGGTGTG,0.124
20,CCCCTCAA,-0.183
21,GTACCCCA,0.129
22,CTACGTCC,-0.204
